The list shows a part of the results. The energies were worked out here from pooled read counts, against the library average; single values are noisy.
Molecular target: T1, Pho4 (S. cerevisiae) (UniProt P07270)
T1 sequence: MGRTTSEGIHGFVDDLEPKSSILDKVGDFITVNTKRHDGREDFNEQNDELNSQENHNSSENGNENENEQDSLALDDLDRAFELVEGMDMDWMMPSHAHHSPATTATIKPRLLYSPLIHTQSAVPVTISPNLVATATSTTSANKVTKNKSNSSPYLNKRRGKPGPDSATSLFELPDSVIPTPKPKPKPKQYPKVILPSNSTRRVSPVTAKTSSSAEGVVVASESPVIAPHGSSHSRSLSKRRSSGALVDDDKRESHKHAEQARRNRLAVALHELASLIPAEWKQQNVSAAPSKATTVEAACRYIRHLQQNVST
Assay: relative binding free energy (BET-seq); higher = weaker binding
Conditions: reference: library average

Sequence	relative binding free energy
TGGTTCACGTGACGTT	0.32 kcal/mol
AAGTGCACGTGTGATG	0.16 kcal/mol
TTAACCACGTGTGTAG	0.01 kcal/mol
TCTAGCACGTGGGATT	-0.19 kcal/mol
AGGGACACGTGAGCAG	0.25 kcal/mol
AGTAGCACGTGTCTAG	-0.08 kcal/mol
GGGGTCACGTGCGGAC	0.12 kcal/mol
GCGACCACGTGTGGGG	0.05 kcal/mol
TAGGGCACGTGGGCAT	-0.15 kcal/mol
GGAATCACGTGGAGGG	0.14 kcal/mol
GGAGACACGTGTGGCT	0.17 kcal/mol
GTGGTCACGTGTACGT	0.29 kcal/mol
CGGGGCACGTGGTCTG	-0.36 kcal/mol
TTACGCACGTGGGTAT	-0.31 kcal/mol
GATTGCACGTGAGTGG	0.28 kcal/mol
AGCCGCACGTGTGGTG	0.02 kcal/mol
ATCTGCACGTGGAAAG	0.29 kcal/mol
GGAAGCACGTGGAGCG	-0.22 kcal/mol
GGGTTCACGTGTTGCT	0.31 kcal/mol
TATTCCACGTGTTAGG	0.03 kcal/mol
TATGCCACGTGGTGGT	-0.23 kcal/mol
ACTAGCACGTGATGTT	-0.01 kcal/mol
TAGGGCACGTGCGTAG	-0.19 kcal/mol
GGCGCCACGTGGGGGA	-0.25 kcal/mol
CGAGGCACGTGGAGGT	-0.08 kcal/mol
TCATACACGTGGGGTT	-0.11 kcal/mol

Sequence	relative binding free energy
TTAATCACGTGGATAA	0.19 kcal/mol
CTTTACACGTGGGAGG	-0.1 kcal/mol
TCATTCACGTGATGTT	0.18 kcal/mol
CTGGACACGTGTTAGG	0.12 kcal/mol
CGGTTCACGTGATGAG	0.24 kcal/mol
TTTTTCACGTGGAGCA	0.14 kcal/mol
TTATGCACGTGTTATT	0.05 kcal/mol
GCGTTCACGTGATGGC	0.46 kcal/mol
AATTTCACGTGATGAA	0.34 kcal/mol
TTGGTCACGTGGAATT	0.23 kcal/mol
GCTGGCACGTGCGTAG	0.04 kcal/mol
GGCGGCACGTGGTCTT	-0.07 kcal/mol
TGTATCACGTGGGTAT	-0.04 kcal/mol
CGGGACACGTGCGGGG	-0.23 kcal/mol
GAGCGCACGTGGGGTA	-0.13 kcal/mol
GTATACACGTGTGTCA	0.01 kcal/mol
ATTTTCACGTGGTGTT	0.24 kcal/mol
TCTGTCACGTGAGTAA	0.21 kcal/mol
AGGGACACGTGGGCTT	-0.06 kcal/mol
TTGCTCACGTGTAGGG	0.23 kcal/mol
TGCATCACGTGAGCGG	0.42 kcal/mol
GAATTCACGTGGCAGT	0.35 kcal/mol
TCTTGCACGTGTTGGG	0.02 kcal/mol
GGTATCACGTGTGTTA	0.24 kcal/mol
TAAGGCACGTGCTGGA	-0.2 kcal/mol
TTAGACACGTGGGTAA	0.01 kcal/mol

Sequence	relative binding free energy
CGGAACACGTGTATGT	0.14 kcal/mol
AAGGTCACGTGTACTG	0.09 kcal/mol
TTCTTCACGTGTGTGC	0.31 kcal/mol
GGGTGCACGTGGCACG	-0.2 kcal/mol
CATTGCACGTGGCGTG	-0.07 kcal/mol
GGCGCCACGTGATGGT	0 kcal/mol
GAAGTCACGTGGTGGG	0.13 kcal/mol
ACGGTCACGTGGTTGG	0 kcal/mol
ATACGCACGTGGGGGG	-0.35 kcal/mol
TAAGTCACGTGAGTGA	0.26 kcal/mol
ATGTGCACGTGGAGCG	0.11 kcal/mol
AAGGTCACGTGTAAAG	0.3 kcal/mol
ATGGTCACGTGGGATT	0.16 kcal/mol
ATGGACACGTGGCTTT	-0.07 kcal/mol
CGGATCACGTGGGGGA	0.05 kcal/mol
GGAGGCACGTGATGGC	-0.03 kcal/mol
ATGGACACGTGTAGGA	-0.02 kcal/mol
ATATTCACGTGCGTGT	0.09 kcal/mol
TTTAGCACGTGGCGTT	-0.14 kcal/mol
TTATACACGTGTTTGA	0 kcal/mol
TAACGCACGTGGTTTA	-0.18 kcal/mol
GGTTTCACGTGTGTAA	0.37 kcal/mol
TAGATCACGTGGTAAT	0.19 kcal/mol
GTGTTCACGTGGCGGA	0.13 kcal/mol
GAATGCACGTGGTATT	0.08 kcal/mol
TTTGACACGTGTGAGT	0.04 kcal/mol

Sequence	relative binding free energy
AGTCGCACGTGGTCGG	-0.12 kcal/mol
CTGAGCACGTGGGGAT	-0.19 kcal/mol
TTTCTCACGTGCAGGG	0.28 kcal/mol
TGCGACACGTGGTTAG	-0.04 kcal/mol
TTTGTCACGTGCTGTC	0.09 kcal/mol
TGGTTCACGTGTTGAT	0.36 kcal/mol
GTTAGCACGTGGGTCG	-0.14 kcal/mol
AACATCACGTGAATGG	0.47 kcal/mol
TGAGACACGTGTGTAA	0.07 kcal/mol
TTTCGCACGTGTGTCG	0.05 kcal/mol
GTAGCCACGTGTTGGT	-0.01 kcal/mol
TGTAGCACGTGATGGC	0.18 kcal/mol
AGGAGCACGTGAAGGT	0.13 kcal/mol
AAAAGCACGTGTGATT	0.1 kcal/mol
GTCGACACGTGTGGGC	0.08 kcal/mol
TCTGTCACGTGTTAAG	0.18 kcal/mol
GAGGTCACGTGTTTTG	0.25 kcal/mol
TAGGGCACGTGTTAAA	-0.07 kcal/mol
GGTTTCACGTGGTGAC	0.37 kcal/mol
GGTGGCACGTGGAATA	0.11 kcal/mol
AGAGCCACGTGGAGTG	-0.07 kcal/mol
GATGACACGTGGAGCG	0.22 kcal/mol
AATATCACGTGTTTAG	0.09 kcal/mol
GTAGGCACGTGCTGAG	-0.13 kcal/mol
TGATTCACGTGTGGTG	0.25 kcal/mol
TAGGTCACGTGAAAGC	0.45 kcal/mol

Sequence	relative binding free energy
GAAGACACGTGGTGGA	-0.08 kcal/mol
TGAGACACGTGGGAAG	-0.11 kcal/mol
GATAGCACGTGGGTGG	-0.08 kcal/mol
GAATTCACGTGGGTGT	0.29 kcal/mol
GGGGTCACGTGTGGAA	0.22 kcal/mol
TGGAGCACGTGAGTGG	0.12 kcal/mol
AGAATCACGTGGAATT	0.47 kcal/mol
TTTTGCACGTGGCAAT	-0.15 kcal/mol
AACAGCACGTGGGTGT	-0.34 kcal/mol
AGCTACACGTGGGGGC	0 kcal/mol
AATGCCACGTGTAGGT	-0.11 kcal/mol
GAGAACACGTGTGGGA	0.12 kcal/mol
GTTTGCACGTGACTGG	0.22 kcal/mol
GCCTGCACGTGTGTTT	0.18 kcal/mol
AGGAACACGTGGAGTT	-0.01 kcal/mol
TTAGACACGTGGGGGC	-0.13 kcal/mol
TGGGTCACGTGTGCGT	0.16 kcal/mol
GTACTCACGTGCAGGT	0.34 kcal/mol
GATTGCACGTGGTTGC	-0.02 kcal/mol
AACTTCACGTGGGTGC	0.33 kcal/mol
TCGTTCACGTGCTGGA	0.29 kcal/mol
TGATGCACGTGCTAGG	-0.04 kcal/mol
TGTTGCACGTGTTGTG	0.01 kcal/mol
ATGCACACGTGAGGGT	0.09 kcal/mol
ATATGCACGTGAATAT	0.24 kcal/mol
ATAGTCACGTGTTTAA	0 kcal/mol

Sequence	relative binding free energy
AACGTCACGTGCAGGG	0.12 kcal/mol
ACGGTCACGTGTGATG	0.19 kcal/mol
GTCGTCACGTGGTAGG	0.14 kcal/mol
AGGGCCACGTGAGGTA	0.01 kcal/mol
ATAAACACGTGTGTGT	-0.08 kcal/mol
TTGAACACGTGGTGTG	-0.08 kcal/mol
ATAGGCACGTGCAGTT	-0.04 kcal/mol
AAATACACGTGGTGGA	-0.06 kcal/mol
TAGGTCACGTGTGGCC	0.05 kcal/mol
AGGGACACGTGAGGAT	0.24 kcal/mol
GTCTCCACGTGGGGTG	-0.15 kcal/mol
TTGTGCACGTGTTTAC	0 kcal/mol
TCATGCACGTGGATTG	-0.03 kcal/mol
AGTACCACGTGATGGT	0 kcal/mol
TGGGTCACGTGTAGAG	0.15 kcal/mol
TGAGTCACGTGCGAGT	0.07 kcal/mol
TAATTCACGTGGAACG	0.45 kcal/mol
GTTGTCACGTGTGGCG	0.28 kcal/mol
GTATTCACGTGGTCGG	0.27 kcal/mol
GGAAGCACGTGTCGGG	-0.06 kcal/mol
GAGGTCACGTGGGAAA	0.22 kcal/mol
AGCAGCACGTGGATGG	-0.08 kcal/mol
TGGGGCACGTGAGTCA	0.11 kcal/mol
TAGTGCACGTGATTAG	0.04 kcal/mol
TAAGTCACGTGTGATG	0.31 kcal/mol
GTCAGCACGTGTTAAG	0.04 kcal/mol

Sequence	relative binding free energy
AAGTGCACGTGCGTTA	-0.13 kcal/mol
GCACGCACGTGTGGTG	-0.02 kcal/mol
TATGTCACGTGAGCAT	0.3 kcal/mol
TTACTCACGTGGAGTG	0.16 kcal/mol
CGGACCACGTGGGTTT	-0.01 kcal/mol
GGATTCACGTGGGATA	0.03 kcal/mol
GGGAACACGTGTGTGC	0.05 kcal/mol
ATGAACACGTGTGGTA	0.15 kcal/mol
TTAAGCACGTGGAGGA	-0.12 kcal/mol
GTGGTCACGTGGGGAT	0.02 kcal/mol
GCCAGCACGTGTGGGT	0.06 kcal/mol
TCTAACACGTGGGGTT	-0.21 kcal/mol
CTTCTCACGTGTGTGT	0.04 kcal/mol
CTTTTCACGTGGTAAG	0.12 kcal/mol
AAGGTCACGTGACGTA	0.22 kcal/mol
TAATTCACGTGACTGG	0.38 kcal/mol
ATATTCACGTGAAGTG	0.31 kcal/mol
AATATCACGTGTTTTG	0.02 kcal/mol
GTGGGCACGTGTCGAA	-0.02 kcal/mol
ATGGTCACGTGTTCTG	0.03 kcal/mol
ATGTGCACGTGAAAAG	0.12 kcal/mol
GTCGTCACGTGAGGAG	0.23 kcal/mol
ATCTGCACGTGTTTGG	-0.14 kcal/mol
GGGGGCACGTGGTCAG	-0.15 kcal/mol
CTGTTCACGTGTTATA	0.21 kcal/mol
TGTAACACGTGTTCGT	-0.03 kcal/mol

Sequence	relative binding free energy
ATTAGCACGTGGGATG	-0.18 kcal/mol
GGGTGCACGTGTGTGA	0.08 kcal/mol
GTTGCCACGTGGATTT	-0.07 kcal/mol
TTGGGCACGTGGGCAT	-0.11 kcal/mol
GTGGCCACGTGCGGTT	-0.04 kcal/mol
GAATGCACGTGAATGT	0.24 kcal/mol
GTGCGCACGTGGTTTG	-0.16 kcal/mol
GAGTGCACGTGATAGT	0.19 kcal/mol
TAACACACGTGTTTTG	0.04 kcal/mol
ATGTTCACGTGGAATA	0.48 kcal/mol
GATGTCACGTGTATGG	0.28 kcal/mol
AGGGTCACGTGCGTAG	0.04 kcal/mol
GTTAGCACGTGTTCTA	0.01 kcal/mol
CGTGTCACGTGTTTAT	0.24 kcal/mol
GTGTTCACGTGAGACT	0.38 kcal/mol
TTTCTCACGTGAGTGT	0.39 kcal/mol
TGAGGCACGTGCGCGG	-0.24 kcal/mol
TGATTCACGTGGCTGT	0.28 kcal/mol
TTGGGCACGTGTTTTT	0.03 kcal/mol
CGTATCACGTGCGTTG	0.16 kcal/mol
GTGGTCACGTGTGAGC	0.11 kcal/mol
TGATACACGTGGTGAG	-0.11 kcal/mol
AAATGCACGTGTATGA	0 kcal/mol
AGTGTCACGTGTTGTA	0.03 kcal/mol
TTGTCCACGTGTCTTG	0.05 kcal/mol
CGAGTCACGTGGGATT	0.21 kcal/mol

Sequence	relative binding free energy
TGGAACACGTGGTGAT	-0.04 kcal/mol
TTGTGCACGTGTTGGT	0.1 kcal/mol
AGCGGCACGTGGGCGC	-0.25 kcal/mol
GTCGTCACGTGAAAGT	0.43 kcal/mol
TTTTACACGTGGAACG	0.42 kcal/mol
AGCGGCACGTGCCGGG	-0.3 kcal/mol
TTGCGCACGTGAAGGT	0.18 kcal/mol
TATATCACGTGTTCTG	0.03 kcal/mol
GTAATCACGTGAGTTG	0.35 kcal/mol
AAAAGCACGTGGTTGT	-0.14 kcal/mol
GGGTGCACGTGATAGA	0.1 kcal/mol
GGTTTCACGTGGCGTT	0.41 kcal/mol
ACTGTCACGTGGTAGG	0.04 kcal/mol
GGTTTCACGTGAGCGG	0.34 kcal/mol
TTATGCACGTGTCGGG	0.07 kcal/mol
CGTAGCACGTGGTAGT	-0.18 kcal/mol
GGGAGCACGTGTGAGA	0.03 kcal/mol
ATTTGCACGTGAAAGG	0.16 kcal/mol
TGTTGCACGTGTTTCC	0.05 kcal/mol
AAAGTCACGTGGTTGG	0.06 kcal/mol
AGTGACACGTGTAAGT	0.14 kcal/mol
TTGGTCACGTGCTGAG	0.13 kcal/mol

Reference: the BET-seq Pho4 binding data (Le et al. 2018)
